Test results from patent publication US20140271646A1 (UNITED STATES OF AMERICA AS REPRESENTED BY THE SECRETARY …, published 2014).

Tests used:
human IGF-II = molecular target: T1, human IGF-II (human, UniProt P01344 part only); experiment: ELISA, hIGF-II coated on the plate
T1 construct: mature; It was biotinylated for the flow cytometry assays; also called hIGF-II; insulin-like growth factor II
Procedure: (§1) The half-maximal binding (EC₅₀) was calculated by fitting the data to the Langmuir adsorption isotherm.
(§2) ELISA was performed as described previously (Chen et al., 2008, supra). Bound Fabs and eAds were detected by HRP-conjugated mouse anti-FLAG tag antibody. The antibody-Fc fusion proteins binding to IGF-II directly coated on 96-well plates were detected by HRP-conjugated goat anti-human IgG (Fc-specific) antibody. […] The half-maximal binding (EC₅₀) was calculated by fitting the data to the Langmuir adsorption isotherm.

human insulin = human insulin (human, UniProt P01308 part only; P01308 part only, limits assumed); experiment: ELISA, antigen coated on the plate
Procedure: as §1, §2

Sequence of human IGF-II (P01344 25-91): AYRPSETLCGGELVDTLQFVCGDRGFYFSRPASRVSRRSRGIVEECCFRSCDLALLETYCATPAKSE
Sequence of human insulin (P01308 25-54 limits assumed, chain 1 of 2): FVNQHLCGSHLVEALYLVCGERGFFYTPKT
Sequence of human insulin (P01308 90-110 limits assumed, chain 2 of 2): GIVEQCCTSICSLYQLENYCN

EC50 (human IGF-II): 600 pM
fold lower EC50 than IgG1 m610.27 (human IGF-II): ~6 fold
binding result (human insulin): no binding
B1: m630.3Fc (Fc fusion)
chain: QVQLVQSGGGLVQPGGSLRLSCAASSFDFDYYEMSWVRQAPGQRLEWVAYISKSGGTKMYADSVKGRFTISRDNSKNTLYLQMNTLRAEDTAMYYCAKDRATCRGGRCYSFYYGMDVWGQGTLVTVSSGP[letters of human IgG1 Fc left out]
notes: eAd m630.3 joined to the N terminus of human IgG1 Fc through a hinge linker; It was cloned into pSecTagB-Fc and produced in 293 free style cells; also called eAd-Fc (m630.3Fc)
